{"source": "PubChem BioAssay AID686978", "about": "(National Center for Advancing Translational Sciences (NCATS), 2013)", "note": "About 64,000 (15%) of roughly 420,000 compounds were called active. This list was built around the results that the source calls inconclusive (neither active nor inactive); the mix of calls is not that of the screen. Calls come from the whole dose curve; as a rule, active = well fitted inhibition curve with a large enough effect; inconclusive = small, poorly fitted or top-dose-only effect; inactive = flat fitted curve, though single readings scatter. No potency is given beside an inconclusive call; the fits are too rough. % is set by controls: 0 for no effect and ±100 for the full control effect; potency is the fitted concentration of half-maximal effect; tags give direction and shape of the fitted curve.", "data": [{"experiment": "qHTS for Inhibitors of human tyrosyl-DNA phosphodiesterase 1 (TDP1): qHTS in cells in absence of CPT; note: nearly all actives have a fitted effect of over 55% in size", "details": "DT40 Tdp1-/- hTDP1 cells, no CPT, ATP luminescence, 48 h; activity change, negative = growth inhibition: at 46.2 µM (top of the series) unless noted", "method_in_brief": "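Growth of hTDP1-complemented DT40 Tdp1-knockout cells is measured by ATP luminescence after at least 48 hr compound exposure at 37 °C, with DMSO substituting for the 20 nM CPT used in the parallel screen.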", "values": [{"smiles": "COc1ccc(N2CCN(C(CNC(=O)c3ccc4c(c3)OCO4)c3cccnc3)CC2)cc1", "note": "(stereo not drawn)", "Potency": "inconclusive [inhibitor, partial curve]"}, {"smiles": "COc1ccc(Oc2ncnc3c2oc2ccccc23)cc1", "Potency": "inconclusive [inhibitor, single point]"}, {"smiles": "Cc1ccc2c(c1)C(=O)c1c(C(=O)O)cccc1-2", "Potency": "inconclusive [inhibitor, single point]"}, {"smiles": "CN1CCN(CC(C)(C)NS(=O)(=O)c2ccc(Cl)cc2)CC1", "Potency": "inconclusive [inhibitor, single point]"}, {"smiles": "N#Cc1ccc(Cl)cc1NC(=O)CSc1cccc[n+]1[O-]", "Potency": "active: 23.1 µM"}, {"smiles": "CCCNC(=O)c1ccc(COc2ccc(C(C)(C)C)cc2)o1", "Potency": "active: 13 µM"}, {"smiles": "CCCc1nc2ccc(NC(=O)NCCC(=O)OCC)cc2c(=O)n1Cc1ccc(Cl)cc1", "Potency": "inconclusive [inhibitor, single point]"}, {"smiles": "CCOC(=O)N1CCN(C(=O)CN(c2ccc(C)c(C)c2)S(=O)(=O)c2ccccc2)CC1", "Potency": "inactive"}, {"smiles": "Cc1noc(C)c1S(=O)(=O)N(C)C[C@H]1Oc2c(NS(=O)(=O)c3cn(C)cn3)cccc2C(=O)N([C@H](C)CO)C[C@@H]1C", "Potency": "inactive"}, {"smiles": "Cn1cccc1C(=O)OCC(=O)N1CCc2ccccc2C1", "Potency": "inactive"}, {"smiles": "CCCN1CCC(=NNc2ccc(S(=O)(=O)N(CC)CC)cc2[N+](=O)[O-])CC1", "Potency": "active: 2.59 µM"}, {"smiles": "CCOc1ccc(N2C=Nc3ccc(OCC)cc3C2)cc1", "Potency": "active: 18.4 µM"}, {"smiles": "COc1ccc(/C=C2\\CCCC3C2=NN(C(=O)CSc2ncn[nH]2)C3c2ccc(OC)cc2)cc1", "note": "(stereo not drawn)", "Potency": "active: 23.1 µM"}, {"smiles": "Cc1ccc(S(=O)(=O)N2CCCCC2)cc1NC(=O)c1nn(C)c(=O)c2ccccc12", "Potency": "inconclusive [inhibitor, single point]"}, {"smiles": "COc1cc2c(cc1OC)-c1nc3ccccc3c(=O)n1C(C)(C)C2", "Potency": "inconclusive [inhibitor, single point]"}, {"smiles": "CCOc1ccc(Nc2ncnc3onc(-c4ccc(Cl)cc4)c23)cc1", "Potency": "inconclusive [inhibitor, single point]"}, {"smiles": "COc1ccc(CN(C)CC2CCCN(CCc3ccc(F)cc3)C2)c(OC)c1OC", "note": "(stereo not drawn)", "Potency": "active: 14.6 µM"}, {"smiles": "Cc1nc2ccc(NC(=O)C(F)(F)F)cc2o1", "Potency": "inconclusive [inhibitor, single point]"}, {"smiles": "Oc1ccc(C2=Nn3c(nnc3-c3ccco3)SC2)cc1O", "Potency": "inconclusive [inhibitor, partial curve, poor fit]"}, {"smiles": "O=C(Nc1ccc(Cl)cc1)Nc1cccc2nsnc12", "Potency": "active: 29.1 µM"}, {"smiles": "N#CC1(c2ccccc2)CCCN1C(=O)c1ccc(Br)o1", "note": "(stereo not drawn)", "Potency": "inactive"}, {"smiles": "Cc1cc(C)c(S(=O)(=O)N2C=CC(C(F)(F)F)=NCC2)c(C)c1", "Potency": "inactive"}, {"smiles": "COc1ccc(CCNC(=O)Cn2nc(-c3ccc(Cl)cc3)ccc2=O)cc1OC", "Potency": "inconclusive [inhibitor, single point]"}, {"smiles": "COc1ccccc1CNC(=O)CCCc1nnc2n(C)c(=O)c3sccc3n12", "Potency": "inconclusive [inhibitor, single point]"}, {"smiles": "Cc1ccc(C(=O)CCC(=O)Nc2cccc(C(F)(F)F)c2)cc1C", "Potency": "inactive"}, {"smiles": "Cc1nc2sccn2c(=O)c1S(=O)(=O)Nc1cccc(Cl)c1C", "Potency": "inconclusive [inhibitor, single point]"}, {"smiles": "CCCc1cc(=O)n2nc(N3CCC(C(=O)Nc4c(F)c(F)c(F)c(F)c4F)CC3)sc2n1", "Potency": "inactive"}, {"smiles": "COc1cc(C(=O)Nc2ccc(N3CCOCC3)cc2)ccc1OCc1c(C)noc1C", "Potency": "inactive"}, {"smiles": "CC(=O)c1ccc(N2CCN(S(=O)(=O)c3ccc(-c4cnc(C5CC5)o4)cc3)CC2)cc1", "Potency": "inconclusive [inhibitor, partial curve]"}, {"smiles": "COC(=O)c1ccc(/C=C/C(=O)c2ccc(OC)cc2)cc1", "Potency": "active: 16.4 µM"}, {"smiles": "COc1ccc(N2CCN(CC(O)COCc3ccccc3)CC2)cc1", "note": "(stereo not drawn)", "Potency": "inactive"}, {"smiles": "CCOC(=O)c1cc(-c2ccc(OC)cc2)n(CCC(=O)NCCc2ccc(OCC)c(OCC)c2)c1C", "Potency": "inconclusive [inhibitor, single point]"}, {"smiles": "CCOC(=O)CCCCCN1C(=O)c2cccc3cccc(c23)C1=O", "Potency": "inconclusive [inhibitor, single point]"}, {"smiles": "CC1=C(C(=O)OCc2ccccc2)C(c2ccc(Br)cc2)NC(=O)N1CCCC(=O)O", "note": "(stereo not drawn)", "Potency": "inconclusive [inhibitor, partial curve, poor fit]"}, {"smiles": "Fc1ccccc1N1CCN(c2nnnn2-c2ccccc2)CC1", "Potency": "inactive"}, {"smiles": "CCOc1ccc(N(CC(=O)Nc2ccc(C)c(F)c2)C2=NC3CS(=O)(=O)CC3S2)cc1", "note": "(stereo not drawn)", "Potency": "inactive"}, {"smiles": "CCC(=O)Nc1ccc(C(=O)COC(=O)CCN2C(=O)C3CC=CCC3C2=O)cc1", "note": "(stereo not drawn)", "Potency": "inactive"}, {"smiles": "O=C(NCc1ccco1)c1cc(-c2cccnc2)nc2ccc(Cl)cc12", "Potency": "inconclusive [inhibitor, single point]"}, {"smiles": "CCCOCC1CC2(SC(=Nc3ccc(C)cc3)NC2=O)C(=O)O1", "note": "(stereo not drawn)", "Potency": "inconclusive [inhibitor, single point]"}, {"smiles": "COc1ccc(/C=N/Nc2nc(N3CCCC3)nc(N3CCCC3)n2)cc1O", "Potency": "inconclusive [inhibitor, single point]"}, {"smiles": "COc1cc2nc(COc3ccccc3[N+](=O)[O-])oc(=O)c2cc1OC", "Potency": "inactive"}, {"smiles": "CCC(CO)Oc1cc(NCc2ccc(F)cc2)c2ncn(C(C)C)c2c1", "note": "(stereo not drawn)", "Potency": "inconclusive [inhibitor, single point]"}, {"smiles": "COc1ccc(-c2coc3c(C(=O)NCc4ccc(F)c(F)c4)cccc23)c(C)c1", "Potency": "active: 14.6 µM"}, {"smiles": "Cc1ccccc1Nc1nnc(-c2ccc(C)c(S(=O)(=O)NCC3CCCO3)c2)c2ccccc12", "note": "(stereo not drawn)", "Potency": "active: 13 µM"}, {"smiles": "O=C1Nc2cc(C(=O)NCC3CCCO3)ccc2S/C1=C/c1ccccc1F", "note": "(stereo not drawn)", "Potency": "inconclusive [inhibitor, partial curve, poor fit]"}, {"smiles": "CC1CCCCC12NC(=O)N(CC(=O)N1CCN(c3ncccn3)CC1)C2=O", "note": "(stereo not drawn)", "Potency": "inconclusive [inhibitor, single point]"}, {"smiles": "CCCc1[nH]n(-c2nc3ccccc3s2)c(=O)c1C=NCC(C)C", "Potency": "active: 23.1 µM"}, {"smiles": "CC(=O)Nc1ccc(SC(C)C(=O)NC(N)=O)cc1", "note": "(stereo not drawn)", "Potency": "inactive"}, {"smiles": "COCCN(Cc1ccccc1)C(=O)c1cccc(S(=O)(=O)N2CCN(c3ccc(F)cc3)CC2)c1", "Potency": "active: 18.4 µM"}, {"smiles": "COCc1[nH]nc2c1C(c1c(F)cccc1Cl)C(C#N)=C(N)O2", "note": "(stereo not drawn)", "Potency": "inconclusive [inhibitor, single point]"}, {"smiles": "CN1OC[C@@H]2CN(C(=O)c3ccc(-c4ccccc4)cc3)[C@H](c3ccc(-c4cccc(F)c4)cc3)C[C@@H]21", "Potency": "inconclusive [inhibitor, single point]"}, {"smiles": "COc1cc([N+](=O)[O-])ccc1NC(=O)N1CCC2(CC1)Nc1cc(F)ccc1-n1cccc12", "Potency": "inconclusive [inhibitor, single point]"}, {"smiles": "CC1CCN(c2nc3c(S(=O)(=O)c4cccc(Cl)c4)nnn3c3ccsc23)CC1", "Potency": "active: 23.1 µM"}, {"smiles": "Cc1ccc(N2CCN(C(=O)CCS(=O)(=O)c3cc4c(cc3Cl)NC(=O)CO4)CC2)c(C)c1", "Potency": "active: 20.6 µM"}, {"smiles": "CN(c1cc(=O)n2ccccc2n1)C1CCCCC1", "Potency": "inconclusive [inhibitor, single point]"}, {"smiles": "CN=C1N(C)C[C@@H]2[C@@H]3C(=O)N(C)C(=O)[C@@H]3[C@](C)(C(=O)OC)N12", "Potency": "inconclusive [inhibitor, single point]"}, {"smiles": "CC(Oc1cc2oc(=O)c3c(c2cc1Cl)CCC3)C(=O)NCCCN1CCOCC1", "note": "(stereo not drawn)", "Potency": "inactive"}, {"smiles": "O=C(COC(=O)c1ccc(NS(=O)(=O)c2cccs2)cc1O)Nc1nc2ccccc2s1", "Potency": "inactive"}, {"smiles": "CN(C)c1ccc(CNC(=O)C2CCN(C(=O)c3ccc(-n4ccc5ccccc54)s3)CC2)cc1", "Potency": "active: 20.6 µM"}, {"smiles": "Cc1ccc(OC(=O)CCC(=O)Nc2ccc(Br)cc2)cc1", "activity change, negative = growth inhibition": "inconclusive: -7.51% [inhibitor]"}, {"smiles": "COc1ccc(C(=O)Nc2ccc3nc(C)c(C)nc3c2)cc1", "Potency": "inconclusive [inhibitor, single point]"}, {"smiles": "c1cc2c3c(cccc3c1)NC1(CCCCCC1)N2", "Potency": "active: 11.6 µM"}, {"smiles": "CN(C(=O)COC(=O)c1ccccc1SCC(=O)N1CCCC1)c1ccccc1", "Potency": "inconclusive [inhibitor, single point]"}, {"smiles": "Cc1n[nH]c(=O)nc1N/N=C/c1ccco1", "Potency": "inactive"}, {"smiles": "CS(=O)(=O)Oc1ccc(/C=N/NC(=O)c2ccncc2)cc1", "Potency": "inactive"}, {"smiles": "CC(=O)N/C(=N\\OCc1ccccc1Cl)c1nonc1NC(C)=O", "Potency": "inactive"}, {"smiles": "CCC(C)c1ccccc1NC(=O)COC(=O)c1ccc2[nH]c3c(c2c1)CCCC3", "note": "(stereo not drawn)", "Potency": "active: 18.4 µM"}, {"smiles": "COc1ccc(CNS(=O)(=O)c2csc(C(N)=O)c2)cc1OC", "Potency": "inactive"}, {"smiles": "Cc1cn2c(=O)cc(COC(=O)c3ccc(NC(=O)c4ccc(C(C)(C)C)cc4)cc3)nc2s1", "activity change, negative = growth inhibition": "inconclusive: -30.8% [inhibitor]"}, {"smiles": "O=C(OCC#CCSc1nnc(-c2ccc([N+](=O)[O-])cc2)o1)c1cccs1", "Potency": "inconclusive [inhibitor, single point]"}, {"smiles": "c1ccc(-c2csc(-n3cccn3)n2)cc1", "Potency": "inactive"}, {"smiles": "CCNC(=O)C1(C)CCCN(C(=O)c2cc(-c3cccs3)oc2C)C1", "note": "(stereo not drawn)", "activity change, negative = growth inhibition": "inconclusive: -31.7% [inhibitor]"}, {"smiles": "CCOC(=O)c1ccc(NC(=O)C(CC)Sc2nncn3c2cc2oc(C)cc23)cc1", "note": "(stereo not drawn)", "Potency": "inconclusive [inhibitor, single point]"}]}]}
